Assay results as given in patent publication US11618753B2 (priority 2018, dated 2023).
Counter-ions that a name gives are not always drawn.

tested on: MLKL phosphorylation, HT29-L23 human colorectal adenocarcinoma cells; test: cells; settings: read-out: pMLKL HCS Cell Assay (IC50, uM)

In order of rising IC50:
1. Cc1ncc(-c2cc(C(F)(F)F)c3c(N)ncnn23)cc1C(=O)Nc1cc(C)n(Cc2ccc(F)cc2)n1 [Example 1812, 5-(4-amino-5-(trifluoromethyl)pyrrolo[2,1-f][1,2,4]triazin-7-yl)-N-(1-(4-fluorobenzyl)-5-methyl-1H-pyrazol-3-yl)-2-methylnicotinamide]  0.00057 µM
2. Cc1ccc(-c2cc(CN3CCC(F)(F)CC3)c3c(N)ncnn23)cc1C(=O)N[C@@H]1CN(C(=O)[C@H]2CC2(F)F)C[C@@H]1F [Example 1573, 5-(4-amino-5-((4,4-difluoropiperidin-1-yl)methyl)pyrrolo[2,1-f][1,2,4]triazin-7-yl)-N-((3R,4S)-1-((R)-2,2-difluorocyclopropane-1-carbonyl)-4-fluoropyrrolidin-3-yl)-2-methylbenzamide]  0.0027 µM
3. Cc1ncc(-c2cc(C(F)(F)F)c3c(N)ncnn23)cc1C(=O)Nc1cnn(CCc2ccccc2)c1 [Example 1787, 5-(4-amino-5-(trifluoromethyl)pyrrolo[2,1-f][1,2,4]triazin-7-yl)-2-methyl-N-(1-phenethyl-1H-pyrazol-4-yl)nicotinamide]  0.0029 µM
4. C[C@@](O)(C(=O)N1C[C@H](F)[C@H](NC(=O)c2cc(-c3cc(C(F)(F)F)c4c(N)ncnn34)ccc2CF)C1)C(F)(F)F [Example 910, 5-[4-amino-5-(trifluoromethyl)pyrrolo[2,1-f][1,2,4]triazin-7-yl]-N-[(3R,4S)-4-fluoro-1-[(2R)-3,3,3-trifluoro-2-hydroxy-2-methylpropanoyl]pyrrolidin-3-yl]-2-(fluoromethyl)benzamide]  0.0035 µM
5. Cc1cc(F)c(-c2cc(C(F)(F)F)c3c(N)ncnn23)cc1C(=O)N[C@@H]1CN(C(=O)c2cccc(F)c2Cl)C[C@@H]1F [Example 810, 5-[4-amino-5-(trifluoromethyl)pyrrolo[2,1-f][1,2,4]triazin-7-yl]-N-[(3R,4S)-1-(2-chloro-3-fluorobenzoyl)-4-fluoropyrrolidin-3-yl]-4-fluoro-2-methylbenzamide]  0.0039 µM
6. CCc1ccc(-c2cc(C(F)(F)F)c3c(N)ncnn23)cc1C(=O)N[C@@H]1CN(C(=O)C2CC(F)(F)C2)C[C@@H]1F [Example 968, 5-[4-amino-5-(trifluoromethyl)pyrrolo[2,1-f][1,2,4]triazin-7-yl]-N-[(3R,4S)-1-(3,3-difluorocyclobutanecarbonyl)-4-fluoropyrrolidin-3-yl]-2-ethylbenzamide]  0.0041 µM
7. COc1ncc(-c2cc(CN3CCC4(CC3)CC4(F)F)c3c(N)ncnn23)cc1C(=O)N[C@@H]1CN(C(=O)OCC(F)(F)F)C[C@@H]1F [Example 1613, 2,2,2-trifluoroethyl (3R,4S)-3-{5-[4-amino-5-({1,1-difluoro-6-azaspiro[2.5]octan-6-yl}methyl)pyrrolo[2,1-f][1,2,4]triazin-7-yl]-2-methoxypyridine-3-amido}-4-fluoropyrrolidine-1-carboxylate]  0.0046 µM
8. Cc1cc(F)c(-c2cc(C(F)(F)F)c3c(N)ncnn23)cc1C(=O)N[C@@H]1CN(C(=O)C2(C(F)(F)F)CCC2)C[C@@H]1F [Example 798, 5-[4-amino-5-(trifluoromethyl)pyrrolo[2,1-f][1,2,4]triazin-7-yl]-4-fluoro-N-[(3R,4S)-4-fluoro-1-[1-(trifluoromethyl)cyclobutanecarbonyl]pyrrolidin-3-yl]-2-methylbenzamide]  0.0047 µM
9. Cc1c(F)cc(-c2cc(C(F)(F)F)c3c(N)ncnn23)cc1C(=O)N[C@@H]1CN(C(=O)C2CCC(F)(F)CC2)C[C@@H]1F [Example 674, 5-[4-amino-5-(trifluoromethyl)pyrrolo[2,1-f][1,2,4]triazin-7-yl]-N-[(3R,4S)-1-(4,4-difluorocyclohexanecarbonyl)-4-fluoropyrrolidin-3-yl]-3-fluoro-2-methylbenzamide]  0.0049 µM
10. CC(C(=O)N1C[C@H](F)[C@H](NC(=O)c2cc(-c3cc(C(F)(F)F)c4c(N)ncnn34)ccc2CF)C1)C(F)(F)F (stereo partly drawn) [Example 924, 5-[4-amino-5-(trifluoromethyl)pyrrolo[2,1-f][1,2,4]triazin-7-yl]-N-[(3R,4S)-4-fluoro-1-(3,3,3-trifluoro-2-methylpropanoyl)pyrrolidin-3-yl]-2-(fluoromethyl)benzamide]  0.005 µM
11. Cc1cc(F)c(-c2cc(C(F)(F)F)c3c(N)ncnn23)cc1C(=O)N[C@@H]1CN(C(=O)C(C)(F)C(F)(F)F)C[C@@H]1F (stereo partly drawn) [Example 863, 5-[4-amino-5-(trifluoromethyl)pyrrolo[2,1-f][1,2,4]triazin-7-yl]-4-fluoro-N-[(3R,4S)-4-fluoro-1-(2,3,3,3-tetrafluoro-2-methylpropanoyl)pyrrolidin-3-yl]-2-methylbenzamide]  0.0083 µM
12. Nc1ncnn2c(-c3cc(C(=O)N[C@@H]4CN(C(=O)C5(O)CCC5)C[C@@H]4F)c(Cl)cc3F)cc(C(F)(F)F)c12 [Example 395, 5-[4-amino-5-(trifluoromethyl)pyrrolo[2,1-f][1,2,4]triazin-7-yl]-2-chloro-4-fluoro-N-[(3R,4S)-4-fluoro-1-(1-hydroxycyclobutane-carbonyl)pyrrolidin-3-yl] benzamide]  0.012 µM
13. COc1ncc(-c2cc(C(F)(F)F)c3c(N)ncnn23)cc1C(=O)N[C@@H]1CN(CC(O)CC(F)(F)F)C[C@@H]1F (stereo partly drawn) [Example 1821, 5-(4-amino-5-(trifluoromethyl)pyrrolo[2,1-f][1,2,4]triazin-7-yl)-N-((3R,4S)-4-fluoro-1-(4,4,4-trifluoro-2-hydroxybutyl)pyrrolidin-3-yl)-2-methoxynicotinamide]  0.014 µM
14. COc1ncc(-c2cc(C(F)(F)F)c3c(N)ncnn23)cc1C(=O)N[C@@H]1CN(C(=O)C(O)(O)C(F)(F)F)C[C@@H]1F [Example 1670, 5-(4-amino-5-(trifluoromethyl)pyrrolo[2,1-f][1,2,4]triazin-7-yl)-N-((3R,4S)-4-fluoro-1-(3,3,3-trifluoro-2,2-dihydroxypropanoyl)pyrrolidin-3-yl)-2-methoxynicotinamide]  0.014 µM
15. CCc1ccc(-c2cc(C(F)(F)F)c3c(N)ncnn23)c(F)c1C(=O)N[C@@H]1CN(C(=O)C2CC2(F)F)C[C@@H]1F (stereo partly drawn) [Example 740, 3-[4-amino-5-(trifluoromethyl)pyrrolo[2,1-f][1,2,4]triazin-7-yl]-N-[(3R,4S)-1-(2,2-difluorocyclopropanecarbonyl)-4-fluoropyrrolidin-3-yl]-6-ethyl-2-fluorobenzamide]  0.02 µM
16. COc1ncc(-c2cc(C(F)(F)F)c3c(N)ncnn23)cc1C(=O)NCC(C)(O)Cc1ccc(F)cc1 (stereo not shown) [Example 1730, 5-(4-amino-5-(trifluoromethyl)pyrrolo[2,1-f][1,2,4]triazin-7-yl)-N-(3-(4-fluorophenyl)-2-hydroxy-2-methylpropyl)-2-methoxynicotinamide]  0.02 µM
17. Cc1ncc(-c2cc(C(F)(F)F)c3c(N)ncnn23)cc1C(=O)Nc1cn(CCC(C)(O)C(F)(F)F)cn1 (stereo not shown) [Example 1781, 5-(4-amino-5-(trifluoromethyl)pyrrolo[2,1-f][1,2,4]triazin-7-yl)-2-methyl-N-(1-(4,4,4-trifluoro-3-hydroxy-3-methylbutyl)-1H-imidazol-4-yl)nicotinamide]  0.022 µM
18. Cc1nc(C)c(-c2cc(C(F)(F)F)c3c(N)ncnn23)cc1C(=O)N[C@@H]1CN(C(=O)c2cc(F)ccc2F)C[C@@H]1F [Example 1197, 5-[4-amino-5-(trifluoromethyl)pyrrolo[2,1-f][1,2,4]triazin-7-yl]-N-[(3R,4S)-1-(2,5-difluorobenzoyl)-4-fluoropyrrolidin-3-yl]-2,6-dimethylpyridine-3-carboxamide]  0.023 µM
19. [2H]C([2H])([2H])Oc1ncc(-c2cc(CN3CC(F)(F)C3)c3c(N)ncnn23)cc1C(=O)N[C@@H]1CN(S(C)(=O)=O)C[C@@H]1F [Example 1294, 5-{4-amino-5-[(3,3-difluoroazetidin-1-yl)methyl]pyrrolo[2,1-f][1,2,4]triazin-7-yl}-N-[(3R,4S)-4-fluoro-1-methanesulfonylpyrrolidin-3-yl]-2-(methoxy-d3)nicotinamide]  0.024 µM
20. CC(CCNC(=O)c1cc(-c2cc(C(F)(F)F)c3c(N)ncnn23)cnc1F)c1ccccc1 (stereo not shown) [Example 271, 5-[4-amino-5-(trifluoromethyl)pyrrolo[2,1-f][1,2,4]triazin-7-yl]-2-fluoro-N-(3-phenylbutyl)pyridine-3-carboxamide]  0.026 µM
21. CNc1ccc(-c2cc(C(F)(F)F)c3c(N)ncnn23)cc1C(=O)N[C@@H]1CN(C(=O)CC(C(F)(F)F)C(F)(F)F)C[C@@H]1F [Example 1135, 5-[4-amino-5-(trifluoromethyl)pyrrolo[2,1-f][1,2,4]triazin-7-yl]-N-[(3R,4S)-4-fluoro-1-[4,4,4-trifluoro-3-(trifluoromethyl)butanoyl]pyrrolidin-3-yl]-2-(methylamino)benzamide]  0.032 µM
22. COc1ncc(-c2cc(C(F)(F)F)c3c(N)ncnn23)cc1C(=O)N[C@@H]1CN(C(=O)C2CCCCC2)C[C@@H]1C [Example 296, 5-[4-amino-5-(trifluoromethyl)pyrrolo[2,1-f][1,2,4]triazin-7-yl]-N-[(3S,4S)-1-cyclohexane-carbonyl-4-methylpyrrolidin-3-yl]-2-methoxypyridine-3-carboxamide]  0.063 µM
23. COc1ncc(-c2cc(C(F)(F)F)c3c(N)ncnn23)cc1C(=O)N[C@@H]1CN(C(=O)C(C)(C)O)C[C@@H]1F [Example 339, 5-[4-amino-5-(trifluoromethyl)pyrrolo[2,1-f][1,2,4]triazin-7-yl]-N-[(3R,4S)-4-fluoro-1-(2-hydroxy-2-methylpropanoyl)pyrrolidin-3-yl]-2-methoxy-pyridine-3-carboxamide, TFA]  0.09 µM
24. COc1ncc(-c2cc(C(F)(F)F)c3c(N)ncnn23)cc1C(=O)N[C@@H]1CN(S(=O)(=O)c2cnc(C)s2)C[C@@H]1F [Example 503, 5-[4-amino-5-(trifluoromethyl)pyrrolo[2,1-f][1,2,4]triazin-7-yl]-N-[(3R,4S)-4-fluoro-1-[(2-methyl-1,3-thiazol-5-yl)sulfonyl]pyrrolidin-3-yl]-2-methoxypyridine-3-carboxamide]  0.206 µM
25. COc1ncc(-c2cc(C(F)(F)F)c3c(N)ncnn23)cc1C(=O)NCCC(O)(c1ccc(Cl)cc1)C(C)C (stereo not shown) [Example 146, 5-[4-amino-5-(trifluoromethyl)pyrrolo[2,1-f][1,2,4]triazin-7-yl]-N-[3-(4-chlorophenyl)-3-hydroxy-4-methylpentyl]-2-methoxypyridine-3-carboxamide]  0.419 µM
